# The list shows a part of the results. Many values rest on one well or one pass, so single values are uncertain.
# System: IST-MEL1
# Assay: cell count relative to DMSO control; melanoma cells; higher = more viable cells
# Conditions: library dose: standard library concentration; 72 h
# 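Further: cells treated in 1,536-well plates, then fixed and DAPI-stained, with nuclei counted from automated high-throughput microscope images.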
row,Compound,cell count
1,"COc1cc2c(Oc3ccc4[nH]c(C)cc4c3F)ncnc2cc1OCCCN1CCCC1 [cediranib] + N#Cc1c(O)c2c(-c3ccc(-c4ccccc4O)cc3)csc2[nH]c1=O [A769662] (first compound 2 µM, partner dose 10 µM)",101%
2,"CC(C)(C)c1cnc(CSc2cnc(NC(=O)C3CCNCC3)s2)o1 + CN(C)S(=O)(=O)c1ccc2c(c1)/C(=C/c1cc3c([nH]1)CCCC3)C(=O)N2 [SU6656] (first compound 0.05 µM, partner dose 2 µM)",74.9%
3,"COc1cc2c(Oc3ccc4[nH]c(C)cc4c3F)ncnc2cc1OCCCN1CCCC1 [cediranib] + COc1ccc(COc2ccc(Cc3cnc(N)nc3N)cc2OC)cc1 [GW2580] (first compound 2 µM, partner dose 5 µM)",134%
4,"CCCCCCCCc1ccc(CCC(N)(CO)CO)cc1 [fingolimod] + OCCn1cc(-c2cnc3nnn(Cc4ccc5ncccc5c4)c3n2)cn1 [PF04217903] (first compound 10 µM, partner dose 5 µM)",18%
5,"NC(=O)c1ccc(N(C(N)=O)c2c(F)cccc2F)nc1-c1ccc(F)cc1F + Clc1ccc(Nc2nnc(Cc3ccncc3)c3ccccc23)cc1 [vatalanib] (first compound 2 µM, partner dose 10 µM)",76.4%
6,"CCc1ccc(CCOc2ccc(CC3SC(=O)NC3=O)cc2)nc1 (centres undefined) [pioglitazone] + CC(C)CCN1c2nc(Nc3cc(F)c(O)c(F)c3)ncc2N(C)C(=O)C1C [BID1870] (first compound 10 µM, partner dose 1 µM)",84.4%
7,"Cc1ccc(NC(=O)c2cccc(N(C)C)c2)cc1NC(=O)c1ccc(O)cc1 + CN(C)S(=O)(=O)c1ccc2c(c1)/C(=C/c1cc3c([nH]1)CCCC3)C(=O)N2 [SU6656] (first compound 10 µM, partner dose 2 µM)",60.8%
8,"NC(=O)c1ccc(N(C(N)=O)c2c(F)cccc2F)nc1-c1ccc(F)cc1F + Cc1cc(N2CCOCC2)cc2[nH]c(-c3c(NC[C@@H](O)c4cccc(Cl)c4)cc[nH]c3=O)nc12 [BMS536924] (first compound 2 µM, partner dose 1 µM)",101%
9,"Cc1ccc(NC(=O)c2cccc(N(C)C)c2)cc1NC(=O)c1ccc(O)cc1 + CCCCCCCCCCCC1=C(O)C(=O)C=C(O)C1=O [Embelin] (first compound 10 µM, partner dose 6 µM)",59%
10,"CN(NC(=O)CC(=O)NN(C)C(=S)c1ccccc1)C(=S)c1ccccc1 + Cn1cc(/C=C2\C(=O)Nc3cccnc32)c2ccccc21 [GW441756] (first compound 0.03 µM, partner dose 2 µM)",66.8%
11,"CCCCCCCCc1ccc(CCC(N)(CO)CO)cc1 [fingolimod] + O=C(O)[C@@H]1[O][Sb](=[O])([O][Sb]2(=[O])[O][C@H]([C@H](O)CO)[C@H](O)[C@H](C(=O)O)[O]2)[O][C@H]([C@H](O)CO)[C@@H]1O [stibogluconate] (first compound 10 µM, partner dose 10 µM)",41.9%
12,"Cc1ccc(NC(=O)c2cccc(N(C)C)c2)cc1NC(=O)c1ccc(O)cc1 + COc1cc(N2CCC(N3CCN(C)CC3)CC2)ccc1Nc1ncc(Cl)c(Nc2ccccc2S(=O)(=O)C(C)C)n1 [NVP-TAE684] (first compound 10 µM, partner dose 0.4 µM)",94%
13,"COc1cc2c(Oc3ccc4[nH]c(C)cc4c3F)ncnc2cc1OCCCN1CCCC1 [cediranib] + COc1cc(N2CCC(N3CCN(C)CC3)CC2)ccc1Nc1ncc(Cl)c(Nc2ccccc2S(=O)(=O)C(C)C)n1 [NVP-TAE684] (first compound 2 µM, partner dose 0.4 µM)",97.2%
14,"COc1cc2c(Oc3ccc4[nH]c(C)cc4c3F)ncnc2cc1OCCCN1CCCC1 [cediranib] + Cn1cc(/C=C2\C(=O)Nc3cccnc32)c2ccccc21 [GW441756] (first compound 2 µM, partner dose 2 µM)",105%
15,"COc1cc2c(Oc3ccc4[nH]c(C)cc4c3F)ncnc2cc1OCCCN1CCCC1 [cediranib] + Oc1cc(-c2nc(-c3ccccc3)[nH]c2-c2ccncc2)ccc1Cl [L779450] (first compound 2 µM, partner dose 1 µM)",85.2%
16,"NC(=O)c1ccc(N(C(N)=O)c2c(F)cccc2F)nc1-c1ccc(F)cc1F + Cc1nc(Nc2ncc(C(=O)Nc3c(C)cccc3Cl)s2)cc(N2CCN(CCO)CC2)n1 [dasatanib] (first compound 2 µM, partner dose 0.02 µM)",72.3%
17,"CC(C)(C)c1cnc(CSc2cnc(NC(=O)C3CCNCC3)s2)o1 + c1cc(-c2cnn3cc(-c4ccc(OCCN5CCCCC5)cc4)cnc23)ccn1 [Dorsomorphin] (first compound 0.05 µM, partner dose 2 µM)",58.2%

row,Compound,cell count
1,"CC(C)(C)c1cnc(CSc2cnc(NC(=O)C3CCNCC3)s2)o1 + C[C@@H]1CCN(C(=O)CC#N)C[C@@H]1N(C)c1ncnc2[nH]ccc12 [CP690550] (first compound 0.05 µM, partner dose 5 µM)",80.1%
2,"CC(C)(C)c1cnc(CSc2cnc(NC(=O)C3CCNCC3)s2)o1 + Oc1nc(-c2ccc(C(F)(F)F)cc2)nc2c1CSCC2 [XAV939] (first compound 0.05 µM, partner dose 10 µM)",94.3%
3,"NC(=O)c1ccc(N(C(N)=O)c2c(F)cccc2F)nc1-c1ccc(F)cc1F + C=C(c1ccc(C(=O)O)cc1)c1cc2c(cc1C)C(C)(C)CCC2(C)C [Bexarotene] (first compound 2 µM, partner dose 10 µM)",90%
4,"CCc1ccc(CCOc2ccc(CC3SC(=O)NC3=O)cc2)nc1 (centres undefined) [pioglitazone] + N#Cc1c(O)c2c(-c3ccc(-c4ccccc4O)cc3)csc2[nH]c1=O [A769662] (first compound 10 µM, partner dose 10 µM)",86.9%
5,"CC(C)(C)c1cnc(CSc2cnc(NC(=O)C3CCNCC3)s2)o1 + Cc1cc([N+](=O)[O-])ccc1NS(=O)(=O)c1cc(Cl)ccc1Cl [FH535] (first compound 0.05 µM, partner dose 5 µM)",47%
6,"NC(=O)c1ccc(N(C(N)=O)c2c(F)cccc2F)nc1-c1ccc(F)cc1F + CN(c1ncccc1CNc1nc(Nc2ccc3c(c2)CC(=O)N3)ncc1C(F)(F)F)S(C)(=O)=O [PF562271] (first compound 2 µM, partner dose 0.4 µM)",77.3%
7,"Cc1ccc(NC(=O)c2cccc(N(C)C)c2)cc1NC(=O)c1ccc(O)cc1 + Cc1cc(N2CCOCC2)cc2[nH]c(-c3c(NC[C@@H](O)c4cccc(Cl)c4)cc[nH]c3=O)nc12 [BMS536924] (first compound 10 µM, partner dose 1 µM)",87.9%
8,"Cc1ccc(NC(=O)c2cccc(N(C)C)c2)cc1NC(=O)c1ccc(O)cc1 + Cn1cc(/C=C2\C(=O)Nc3cccnc32)c2ccccc21 [GW441756] (first compound 10 µM, partner dose 2 µM)",95.6%
9,"CC(C)(C)c1cnc(CSc2cnc(NC(=O)C3CCNCC3)s2)o1 + OCCn1cc(-c2cnc3nnn(Cc4ccc5ncccc5c4)c3n2)cn1 [PF04217903] (first compound 0.05 µM, partner dose 5 µM)",92.1%
10,"NC(=O)c1ccc(N(C(N)=O)c2c(F)cccc2F)nc1-c1ccc(F)cc1F + CCCCCCCCc1ccc(CCC(N)(CO)CO)cc1 [fingolimod] (first compound 2 µM, partner dose 10 µM)",13.7%
11,"NC(=O)c1ccc(N(C(N)=O)c2c(F)cccc2F)nc1-c1ccc(F)cc1F + C[C@@H](Oc1cc(-c2cnn(C3CCNCC3)c2)cnc1N)c1c(Cl)ccc(F)c1Cl [Crizotinib] (first compound 2 µM, partner dose 1 µM)",101%
12,"CCCCCCCCc1ccc(CCC(N)(CO)CO)cc1 [fingolimod] + C=C(c1ccc(C(=O)O)cc1)c1cc2c(cc1C)C(C)(C)CCC2(C)C [Bexarotene] (first compound 10 µM, partner dose 10 µM)",12.4%
13,"NC(=O)c1ccc(N(C(N)=O)c2c(F)cccc2F)nc1-c1ccc(F)cc1F + O=C(O)c1ccc(-c2c[nH]c3ncc(-c4ccccc4)cc23)cc1C1CCCC1 [GSK650394] (first compound 2 µM, partner dose 0.8 µM)",70.5%
14,"CCCCCCCCc1ccc(CCC(N)(CO)CO)cc1 [fingolimod] + CS(=O)(=O)CCNCc1ccc(-c2ccc3ncnc(Nc4ccc(OCc5cccc(F)c5)c(Cl)c4)c3c2)o1 [lapatinib] (first compound 10 µM, partner dose 4 µM)",5.87%
15,"CC(C)(C)c1cnc(CSc2cnc(NC(=O)C3CCNCC3)s2)o1 + CN(NC(=O)CC(=O)NN(C)C(=S)c1ccccc1)C(=S)c1ccccc1 [STA4783] (first compound 0.05 µM, partner dose 0.03 µM)",29.3%
16,"CCCCCCCCc1ccc(CCC(N)(CO)CO)cc1 [fingolimod] + COc1ccc(Cl)c(Nc2nc3ccccc3nc2NS(=O)(=O)c2cccc(NC(=O)C(C)(C)N)c2)c1 [XL147] (first compound 10 µM, partner dose 4 µM)",20.8%
17,"CCCCCCCCc1ccc(CCC(N)(CO)CO)cc1 [fingolimod] + C[C@@H]1CCN(C(=O)CC#N)C[C@@H]1N(C)c1ncnc2[nH]ccc12 [CP690550] (first compound 10 µM, partner dose 5 µM)",14.7%

# Source: the supplement of paper PMC4604168 (melanoma cell lines)
